Test results as given in publication PMC4336329 (PLoS ONE, 2015).
The whole screen tested about 310,000 compounds, of which about 14,000 (4.5%) showed an effect of 50% or more. The effect is printed as a negative number. This is one part of the list.

These compounds were tested against human ether-à-go-go-related gene (hERG) potassium channel (human, UniProt Q12809) (assay: primary screen, population patch clamp on CHO cells stably expressing hERG).
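Further: peak tail current of the secondary pulse compared with the same well before compound.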

Sequence of human ether-à-go-go-related gene (hERG) potassium channel (Q12809 whole entry, looked up): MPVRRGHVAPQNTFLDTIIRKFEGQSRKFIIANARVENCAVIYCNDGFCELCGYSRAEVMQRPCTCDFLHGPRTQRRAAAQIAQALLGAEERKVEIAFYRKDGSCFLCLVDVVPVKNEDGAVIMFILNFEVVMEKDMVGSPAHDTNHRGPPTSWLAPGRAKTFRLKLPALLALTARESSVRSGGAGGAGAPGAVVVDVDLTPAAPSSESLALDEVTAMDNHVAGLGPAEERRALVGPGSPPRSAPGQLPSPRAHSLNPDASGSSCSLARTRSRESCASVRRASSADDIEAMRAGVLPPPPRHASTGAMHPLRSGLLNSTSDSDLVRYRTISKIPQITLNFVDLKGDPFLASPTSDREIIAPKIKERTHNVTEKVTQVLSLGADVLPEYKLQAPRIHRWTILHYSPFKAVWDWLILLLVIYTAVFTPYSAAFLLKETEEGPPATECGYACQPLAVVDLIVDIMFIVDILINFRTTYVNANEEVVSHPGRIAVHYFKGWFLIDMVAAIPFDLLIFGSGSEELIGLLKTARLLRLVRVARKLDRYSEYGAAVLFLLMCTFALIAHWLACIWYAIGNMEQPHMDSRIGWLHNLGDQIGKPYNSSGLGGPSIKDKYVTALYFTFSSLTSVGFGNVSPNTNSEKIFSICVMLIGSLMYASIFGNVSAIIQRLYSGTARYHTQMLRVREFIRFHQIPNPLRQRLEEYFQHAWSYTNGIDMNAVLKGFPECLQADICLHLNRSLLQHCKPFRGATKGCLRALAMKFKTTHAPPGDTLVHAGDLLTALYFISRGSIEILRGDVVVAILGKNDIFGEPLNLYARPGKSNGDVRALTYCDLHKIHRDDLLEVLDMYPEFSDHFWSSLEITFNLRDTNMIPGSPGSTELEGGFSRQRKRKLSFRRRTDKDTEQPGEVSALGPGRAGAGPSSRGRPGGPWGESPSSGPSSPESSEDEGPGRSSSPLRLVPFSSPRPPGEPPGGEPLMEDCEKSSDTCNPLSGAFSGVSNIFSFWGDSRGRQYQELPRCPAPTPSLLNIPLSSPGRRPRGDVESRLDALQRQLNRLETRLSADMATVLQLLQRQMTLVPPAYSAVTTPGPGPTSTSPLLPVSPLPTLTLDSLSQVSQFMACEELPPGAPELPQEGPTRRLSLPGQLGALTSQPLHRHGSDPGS

SMILES | hERG current change (%, negative = inhibition) at 10uM [%]
COCCCn1c(C(=O)N2CCOCC2)cc2c(=O)n3cccc(C)c3nc21 | -11.4
c1ccc(CSc2nnc(SCc3ccccn3)s2)nc1 | -6.58
Cc1cccc(C)c1NC(=O)CSc1nnc(CCCCCNC(=O)OC(C)(C)C)o1 | -17.8
COC(=O)c1cc(NS(=O)(=O)c2ccc(N3CCOCC3)c(NC(C)=O)c2)cc(C(=O)OC)c1 | -1.8
COCC1CCN(C(=O)c2cc(COc3ccc(F)cc3F)on2)C1 (stereo not shown) | -13.2
COc1cccc(CNc2ccc(N3CCCCC3)cc2)c1OC | 2.2
Cc1ccc(C)c(NS(=O)(=O)c2c(C)nn(C)c2C)c1 | 11
COc1ccc(N2CC(C(=O)Nc3nnc(SCC(=O)NCC4CCCO4)s3)CC2=O)cc1 (stereo not shown) | 14.7
Oc1ccccc1/C=N/Nc1ccccc1 | 11.7
COC(=O)C1=C(C(=O)OC)[C@@H]2N(C)c3ccc(OC)cc3[C@@]23C[C@@H](C(=O)OC)N(C(=O)c2cccs2)C3=N1 | -68.3
CCOC(=O)N1CCN(C(=O)CSc2ncnc3ccccc23)CC1 | -24.4
C[C@]12C(=O)N(c3cccc(Cl)c3)C(=O)N1[C@H]1c3ccccc3OC[C@@H]1[C@H]2c1ccccc1 | 25.4
Cn1nc(C(C)(C)C)c([N+](=O)[O-])c1C(=O)NC1CCCCC1 | -44.7
CCOc1cccc(C(=O)NC2CCCCC2)c1 | -14
CCOCCCNCC(=O)Nc1ccc(OC(F)(F)F)cc1.Cl | -56.4
CSc1nc2nc(C)cc(-c3ccccc3)n2n1 | -10.7
CCN1CCN(c2ncnc3scc(-c4ccc(C)c(C)c4)c23)CC1 | -76.4
CC(=O)NCCNC(=O)CCNC(=O)c1ccc(Cl)cc1 | 4.19
COc1ccc(/C=N/OCc2ccccc2C#N)c(OC)c1 | 12.9
Cc1ccsc1C=C1C(=O)c2ccccc2C1=O | 15.3
CS(=O)(=O)c1nc(S(=O)(=O)c2ccc(Cl)cc2)c(N2CCCCCC2)s1 | 8.54
Cc1ccc(NC(=S)Nc2cc(-c3ccccc3)[nH]n2)cc1Cl | 20.5

SMILES | hERG current change (%, negative = inhibition) at 10uM [%]
O=C(N/N=C/c1ccc(O)c(O)c1)c1cc(-c2ccccc2)nc2ccccc12 | 10.1
COc1ccc(S(=O)(=O)N2CCc3ccccc32)cc1C(=O)O | -6.25
CCc1ccc(NC(=O)CCNC(=O)Cn2ccc3ccccc3c2=O)cc1 | 23
CC(=O)Nc1cccc(C(=O)OCC(=O)c2ccc(S(=O)(=O)N3CCCCC3)cc2)c1 | -1.9
O=C(O)CCCC(=O)Nc1ccc2c(c1)oc1ccccc12 | 5.13
Cc1ccc(NC(=O)CSCC(=O)Nc2cc(Cl)ccc2N2CCN(C)CC2)cc1 | -53.1
N=c1oc2c3c4c(cc2cc1C(=O)Nc1ccccc1)CCCN4CCC3 | -29.6
O=c1cc(NC2CCCCC2)c2ccccc2o1 | -7.56
CC(C)CCN1CCN(Cc2coc3ccccc3c2=O)CC1CCO (stereo not shown) | -8.64
CCN1C(=O)c2ccc(C(=O)Nc3ccc(O)cc3C)cc2C1=O | 23.5
CCCn1c(CCNC(=O)c2ccco2)nc2ccccc21 | -10.1
O=C(COc1cccc(F)c1)Oc1ccc(C(=O)c2ccccc2)cc1 | 4.73
O=C1NCC(COc2ccc([N+](=O)[O-])cc2)O1 (stereo not shown) | -78.4
N#Cc1ccc(C(=O)Nc2ccc(N3CCN(C(=O)c4ccco4)CC3)cc2)c(F)c1 | -4.42
Cc1cccnc1NCC(O)COc1ccccc1 (stereo not shown) | -37.5
COc1ccc(N2C(=O)C3C4C=CC(C4)C3C2=O)c(OC)c1 (stereo not shown) | 12.6
COC(=O)C1=C(c2c(C)noc2C)C[C@@H]2CC[C@H]1N2C(=O)NC1CC1 | 12.8
COc1ccc(S(=O)(=O)N2CCN(CC(=O)Nc3cc(Cl)ccc3Cl)CC2)cc1 | -7.44
COc1ccccc1-c1cc(C(=O)N/N=C/C=C/c2ccccc2[N+](=O)[O-])c2ccccc2n1 | 8.13
COCCNC(=O)c1ccc2nc(Cc3ccc(OC)c(OC)c3)oc2c1 | 17.1
O=C(CC(NC(=O)C(F)(F)F)c1ccccc1)Nc1nnc(CCc2ccccc2)s1 (stereo not shown) | 5.81
COc1cc(S(=O)(=O)N(Cc2cccc(OC)c2OC)CC2CCCO2)ccc1-n1cnnn1 (stereo not shown) | -21.8

SMILES | hERG current change (%, negative = inhibition) at 10uM [%]
O=C(COc1ncnc2c(Cl)cc(Cl)cc12)N1CCN(S(=O)(=O)c2ccccc2)CC1 | 16.6
Cc1ccc(NS(=O)(=O)c2ccc3c(c2)oc(=O)n3C)c(C)c1 | 18.6
COc1ccccc1N(CC(=O)Nc1ccc2c(c1)OCO2)S(=O)(=O)c1ccccc1 | 4.51
Cc1c(Cl)cccc1NC(=S)NC1CC1 | 1.29
Cc1ccc(C)c(S(=O)(=O)Nc2cc(C)on2)c1 | 14.8
CN(C)S(=O)(=O)c1ccc(C(=O)OCC(=O)Nc2ccc3c(c2)OCO3)cc1 | -17.1
CCCCc1nc2cc(C(=O)N3CCN(c4nc(C)cnc4C)CC3)ccc2o1 | -12.3
Br.CCCCCCCCCCCCn1ccc(=N)cc1 | -60.2
COc1cccc(COC(=O)Cc2ccc(S(=O)(=O)N3CCOCC3)s2)c1OC | -5.44
CCOc1ccc2nc(SCC(=O)c3ccc(C)s3)sc2c1 | 11.1
O=C(CCc1ccccc1)NC(=S)Nc1ccc2c(c1)C(=O)OC2 | 0.437
Cc1ccc(CCC(=O)Nc2ccccc2C(=O)O)o1 | 1.48
CC(C)(C)c1ccc(OCc2nc(-c3ccccn3)no2)c(Br)c1 | 10.7
CC(C)CNC(=O)CSc1n[nH]c(=O)n1CCc1ccccc1 | 22.1
CC(C)CN(C(=O)Cn1ccccc1=O)C1CCS(=O)(=O)C1 (stereo not shown) | 8.22
CC1(C(=O)O)CCC(C(=O)Nc2ccc(F)cc2)C1(C)C (stereo not shown) | 7.21
c1ccc(CCc2nn3c(Cn4cnc5ccccc54)nnc3s2)cc1 | -19.3
O=c1[nH]c(C2CCN(S(=O)(=O)c3ccccc3F)CC2)nc2c1nnn2Cc1ccc(F)cc1 | -3.27
Cc1cccc(CNC(=O)c2cc(S(=O)(=O)N3CCOCC3)cn2C)c1 | 10.1
Cc1ccc(C(=O)NCC2CCCO2)cc1N1CCCC1=O (stereo not shown) | 6.65
CCC(Cc1ccccc1)NS(=O)(=O)c1c(C)nc2sccn2c1=O (stereo not shown) | -9.21
COC(=O)/C=C1\S/C(=N/N=C/c2ccccc2)NC1=O | 0.947

SMILES | hERG current change (%, negative = inhibition) at 10uM [%]
COc1ccc(C(=O)OCC(=O)NC2CC2)cc1OC | 0.962
O=C(COC(=O)CSc1cccc2cccc(Cl)c12)Nc1ncc(C(F)(F)F)cc1Cl | 1.87
Cc1occc1-c1nnc(SCC(=O)c2c(N)n(Cc3ccccc3)c(=O)n(C)c2=O)n1C | 2.25
CC1CCc2sc(C(=O)N(C)CC(=O)Nc3ccc(N4CCOCC4)cc3)cc2C1 (stereo not shown) | -24.4
CC1CCCCN1CC(=O)Nc1ccc2c(c1)OCO2.O=C(O)C(=O)O (stereo not shown) | -20.1
Nc1ccc2c(c1)Cc1cc([N+](=O)[O-])ccc1-2 | 17.8
O=C(NC1CCCC1)C(c1ccncc1)N(C(=O)Cn1nnc(-c2ccccc2F)n1)c1cccc(F)c1 (stereo not shown) | 18.4
O=C(O)c1ccccc1N1C(=O)C2C3CCC(C3)C2C1=O (stereo not shown) | 0.673
Cc1ccccc1CC1SC(N)=NC1=O (stereo not shown) | 11.9
S=c1nc(-c2ccc(Cl)cc2)[nH][nH]1 | 16.5
Cc1ccc(NS(C)(=O)=O)c(C(=O)c2ccccc2)c1 | -19.7
COc1ccccc1-c1c(C)c(C)nc(N)c1C#N | 2.84
Cc1ccc(C(=O)N2CCN(S(=O)(=O)c3ccccc3[N+](=O)[O-])C2)cc1 | -19.3
COc1cc(CC(=O)Nc2ccc(Cl)c(C(F)(F)F)c2)cc(OC)c1OC | -5.35
CC(=O)N(Cc1ccc(F)cc1)C1=C(NCCc2ccccc2)C(=O)c2ccccc2C1=O | -0.648
Cc1ccc(NC(=O)CSCC(N)=O)cc1C | -0.0482
O=C1c2ccccc2OC2(C=Cc3ccccc3O2)N1Cc1ccccc1 (stereo not shown) | 6.47
CC(NC(=O)c1ccc(Cl)c(S(=O)(=O)N2CCCCCC2)c1)c1cccnc1 (stereo not shown) | -52.3
Cc1cc(C)nc(SCC(=O)Nc2ccc(S(=O)(=O)Nc3nccs3)cc2)n1 | -2.58
Nc1nc(-c2ccc(Cl)cc2)nn1C(=O)c1cccnc1 | -9.97
Cc1ccc(S(=O)(=O)Nc2ccc(N3CCOCC3)cc2)cc1 | 15.6
Cc1ccc(Cc2c(C)nc3nc(SCC(=O)NCCCN4CCCCCC4)nn3c2C)cc1 | -54.8
